Results: PubChem BioAssay AID504339 (National Center for Advancing Translational Sciences (NCATS), 2011)
Hit rate of the full screen: of about 390,000 compounds, about 17,000 (4.4%) were called active. This list was built around the results that the source calls inconclusive (neither active nor inactive); the mix of calls is not that of the screen. Calls come from the whole dose curve; as a rule, active = well fitted inhibition curve with a large enough effect; inconclusive = small, poorly fitted or top-dose-only effect; inactive = no such curve, though single readings can be large or run the other way. Where the call is inconclusive, the potency comes from a doubtful curve fit.

Biological target: Lysine-specific demethylase 4A (Homo sapiens) (UniProt O75164)
Experiment: qHTS Assay for Inhibitors of JMJD2A-Tudor Domain; note: nearly all actives have a fitted effect of over 50% in size
Conditions: AlphaScreen JMJD2A-Tudor / H3K4me3 peptide binding; series mostly up to 114 µM
Potency is the fitted concentration of half-maximal effect; tags give direction and shape of the fitted curve.

Sequence of UniProt O75164 (O75164 whole entry, looked up, the tested form may be a part): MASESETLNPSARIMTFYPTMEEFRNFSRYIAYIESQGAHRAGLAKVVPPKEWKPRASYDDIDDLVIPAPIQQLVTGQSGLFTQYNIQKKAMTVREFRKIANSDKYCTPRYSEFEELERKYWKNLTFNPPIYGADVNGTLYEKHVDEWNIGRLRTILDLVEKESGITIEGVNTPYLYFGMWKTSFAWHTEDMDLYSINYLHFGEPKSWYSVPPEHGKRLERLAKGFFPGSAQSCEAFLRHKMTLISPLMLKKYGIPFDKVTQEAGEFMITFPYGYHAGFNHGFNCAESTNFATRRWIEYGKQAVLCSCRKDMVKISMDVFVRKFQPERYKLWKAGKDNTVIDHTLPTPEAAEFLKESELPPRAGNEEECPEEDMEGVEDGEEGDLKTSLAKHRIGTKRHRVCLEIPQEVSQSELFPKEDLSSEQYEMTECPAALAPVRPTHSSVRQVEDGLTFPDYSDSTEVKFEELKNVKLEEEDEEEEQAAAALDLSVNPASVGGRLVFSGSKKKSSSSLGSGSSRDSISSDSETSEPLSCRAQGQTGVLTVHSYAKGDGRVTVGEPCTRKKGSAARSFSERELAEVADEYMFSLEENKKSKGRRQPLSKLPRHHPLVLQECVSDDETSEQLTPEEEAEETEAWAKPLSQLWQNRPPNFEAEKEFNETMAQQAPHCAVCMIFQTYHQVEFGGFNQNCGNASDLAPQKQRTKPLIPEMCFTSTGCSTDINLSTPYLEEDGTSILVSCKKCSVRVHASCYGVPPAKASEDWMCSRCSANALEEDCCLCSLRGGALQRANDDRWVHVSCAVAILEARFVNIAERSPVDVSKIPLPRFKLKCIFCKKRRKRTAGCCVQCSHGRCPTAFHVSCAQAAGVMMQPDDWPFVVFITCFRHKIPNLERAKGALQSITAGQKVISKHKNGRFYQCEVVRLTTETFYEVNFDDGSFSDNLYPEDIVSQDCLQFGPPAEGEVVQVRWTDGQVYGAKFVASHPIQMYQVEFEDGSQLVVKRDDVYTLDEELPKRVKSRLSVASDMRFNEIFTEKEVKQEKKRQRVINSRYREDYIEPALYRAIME

Q: Which Potency does the source give for CCN(C(=O)Cn1nc(Cc2ccncc2)c2ccccc2c1=O)c1cccc(Cl)c1 here?
A: inactive

Q: For CSc1ccc(NC(=O)NCCCN2CCN(c3ccccc3F)CC2)cc1, which Potency is on record?
A: inconclusive: 50.1 µM [inhibitor, partial curve]

Q: For COC(=O)COc1cccc(/C=N/NC(=O)CCSc2ccccc2)c1, which Potency is on record?
A: inconclusive: 39.8 µM [inhibitor, single point]

Q: Which Potency does the source give for O=C(Nc1cnn(Cc2ccc(Cl)cc2)c1)c1cccs1 here?
A: inconclusive: 3.98 µM [inhibitor, single point]

Q: COC(=O)Cc1n[nH]c(=S)[nH]c1=O was tested. Which Potency did it give?
A: active: 79.4 µM

Q: For CC(=O)Nc1sc2c(c1C(c1cccc(Cl)c1)N1CCN(CCO)CC1)CCCC2 (stereo unspecified), which Potency is on record?
A: inconclusive: 35.5 µM [inhibitor, partial curve, poor fit]

Q: With Cc1cccc(NC(=O)CCc2nc3sc4c(c3c(=O)[nH]2)CCCC4)n1 as the compound, how does the Potency read?
A: inconclusive: 15.8 µM [inhibitor, full curve, poor fit]

Q: How did the Potency turn out when CC(=O)C1=C(O)C(=O)N(CC(=O)O)C1c1ccccc1Cl (stereo unspecified) was run?
A: inconclusive: 89.1 µM [inhibitor, partial curve]

Q: With CCOc1ccc2c(c1)c(=O)c(C(=O)c1ccc3c(c1)OCO3)cn2Cc1cccc(F)c1 as the compound, how does the Potency read?
A: inactive

Q: O=C(O)c1ccccc1NS(=O)(=O)c1ccc(N/N=C/c2ccc(O)c(O)c2)c([N+](=O)[O-])c1 was tested. Which Potency did it give?
A: active: 28.2 µM

Q: Which Potency does the source give for CC(C)C(=O)N1CCC(c2nc(-c3ccc(S(=O)(=O)N4CCCC4)cc3)no2)CC1 here?
A: inactive

Q: COc1ccc(-c2csc(NCCc3nc4cc(C(=O)NCCCO)ccc4n3Cc3ccc(C)cc3)n2)cc1 was tested. Which Potency did it give?
A: inconclusive: 56.2 µM [inhibitor, partial curve]

Q: For CN(CC1CCOCC1)C(=O)CC1C(=O)NCCN1Cc1ccc(F)c(F)c1 (stereo unspecified), which Potency is on record?
A: inactive

Q: How did the Potency turn out when S=c1[nH]nc(-c2cccs2)n1/N=C/c1cn(-c2ccccc2)nc1-c1cccs1 was run?
A: inconclusive: 44.7 µM [inhibitor, partial curve]

Q: How did the Potency turn out when CCOc1ccc(OCC)c(NC(=O)c2cnn(-c3ccc(F)cc3)c2C2CCN(C(=O)OC(C)(C)C)CC2)c1 was run?
A: inconclusive: 12.6 µM [inhibitor, full curve, poor fit]

Q: How did the Potency turn out when CCCCn1nnnc1SCC(=O)Nc1ccc(N(C)C)cc1 was run?
A: inconclusive: 56.2 µM [inhibitor, partial curve]

Q: For O=[N+]([O-])c1ccc(CNc2cccc(Cl)c2)s1, which Potency is on record?
A: inconclusive: 25.1 µM [inhibitor, full curve]

Q: For CC(C)OC(=O)c1c(NS(=O)(=O)c2ccccc2)sc2c1CCCC2, which Potency is on record?
A: inconclusive: 3.16 µM [inhibitor, single point]

Q: Which Potency does the source give for CCOc1ccccc1CN1CCNC(=O)C1CC(=O)NCc1nccn1CC (stereo unspecified) here?
A: inactive

Q: For CCN(CC)CCN1C(=O)C(=O)/C(=C(/O)c2c(C)[nH]c(C(=O)OC)c2C)C1c1cccc(OC)c1 (stereo unspecified), which Potency is on record?
A: inconclusive: 20 µM [inhibitor, full curve, poor fit]

Q: Cc1nc2cc(N3CCOCC3)c(NC(=O)C3CC3)cc2c(=O)n1Cc1ccccc1 was tested. Which Potency did it give?
A: inconclusive: 89.1 µM [inhibitor, single point]

Q: Which Potency does the source give for CC(Nc1nc(-c2ccc(F)cc2)cs1)c1nc2cc(Cl)c(Cl)cc2n1CCCO (stereo unspecified) here?
A: inactive

Q: How did the Potency turn out when Cc1ccc(NN=C2c3ccccc3-c3ccccc32)cc1 was run?
A: active: 56.2 µM

Q: CCC(Sc1n[nH]c(=O)[nH]c1=O)C(=O)OCc1ccccc1 (stereo unspecified) was tested. Which Potency did it give?
A: inactive

Q: With COc1cccc(N2CCN(CC(=O)Nc3ccc(S(=O)(=O)N4CCCCCC4)cc3)CC2)c1 as the compound, how does the Potency read?
A: inconclusive: 12.6 µM [inhibitor, full curve, poor fit]

Q: For COc1ccc(CN2CCC(N(CCc3ccccc3)Cc3ccccc3)CC2)c(OC)c1, which Potency is on record?
A: active: 3.16 µM

Q: For O=C(OCC(=O)N(C1CCCCC1)C1CCCCC1)c1ccncc1, which Potency is on record?
A: inconclusive: 70.8 µM [inhibitor, partial curve]

Q: For CC1=NN(c2ccccc2)C(=O)/C1=C/c1ccc(Cl)cc1, which Potency is on record?
A: inconclusive: 31.6 µM [inhibitor, full curve]

Q: Which Potency does the source give for Cc1nc(SCc2ccccc2Cl)c(C#N)c(C)c1C here?
A: inactive

Q: With CCS(=O)(=O)C1=NN2C(=N)/C(=C\c3ccc(SCc4ccco4)o3)C(=O)N=C2S1 as the compound, how does the Potency read?
A: active: 31.6 µM

Q: For COc1ccc(C)cc1NC(=O)CN1CCN(S(=O)(=O)c2ccc(C(C)C)cc2)CC1, which Potency is on record?
A: inactive

Q: CC(C)Nc1nc(NC(C)C)nc(C(=O)OCCO)n1 was tested. Which Potency did it give?
A: active: 50.1 µM

Q: For Cc1nn(-c2ccccc2)c(N2CCCC2)c1/C=N/NC(=S)Nc1ccccc1C(F)(F)F, which Potency is on record?
A: inconclusive: 89.1 µM [inhibitor, partial curve]

Q: How did the Potency turn out when Nc1nc(NC(=O)c2cccnc2)nn1-c1ccccc1 was run?
A: active: 11.2 µM

Q: Which Potency does the source give for Oc1ccc(N=C/C=C/c2cccc(Br)c2)cc1-c1nc2ccccc2s1 here?
A: inconclusive: 44.7 µM [inhibitor, partial curve]

Q: COCCNC(=O)c1onc(CS(=O)(=O)c2cc(C)cc(C)c2)c1C(=O)NCCOC was tested. Which Potency did it give?
A: inconclusive: 2.82 µM [inhibitor, single point]

Q: CCCCCCCNC(=O)C1(CC2CC(c3cccc(Br)c3)=NO2)CCN(C(=O)CCCCCBr)CC1 (stereo unspecified) was tested. Which Potency did it give?
A: inconclusive: 63.1 µM [inhibitor, partial curve, poor fit]

Q: For S=c1[nH]nc(COc2ccccc2)n1/N=C/c1cccc(Br)c1, which Potency is on record?
A: inconclusive: 44.7 µM [inhibitor, single point]

Q: Which Potency does the source give for C#CCOCCOCCOCCNc1nc(N2CCN(C(=O)[C@H](CCCCN)n3cc([C@@H](N)C(C)CC)nn3)CC2)nc(N2CCN(C(=O)[C@H](Cc3ccc(O)cc3)n3cc([C@@H](N)CC(C)C)nn3)CC2)n1 (stereo partly specified) here?
A: inconclusive: 79.4 µM [inhibitor, partial curve]

Q: O=C(c1cc2c([nH]c1=O)CCCC2)N1CCc2c([nH]c3ccccc23)C1c1ccccc1F (stereo unspecified) was tested. Which Potency did it give?
A: inconclusive: 35.5 µM [inhibitor, partial curve]

Q: For CCC(C)n1c(=N)c(C(=O)NC2CCCC2)cc2c(=O)n3ccccc3nc21 (stereo unspecified), which Potency is on record?
A: inconclusive: 89.1 µM [inhibitor, partial curve]

Q: Cc1ccc(N/N=C(/Sc2nnnn2-c2ccccc2)C(=O)c2ccccc2)cc1 was tested. Which Potency did it give?
A: inconclusive: 50.1 µM [inhibitor, partial curve]

Q: With CNC(=O)c1[nH]cnc1C(=O)Nc1cccc(C)c1 as the compound, how does the Potency read?
A: inconclusive: 11.2 µM [inhibitor, full curve]

Q: Which Potency does the source give for c1ccc(Sc2cccc3ccccc23)c(CNC2=NCCN2)c1 here?
A: active: 31.6 µM

Q: How did the Potency turn out when Cc1cccc(Oc2sc(C(=O)c3ccccc3)c(N)c2C#N)c1 was run?
A: inconclusive: 63.1 µM [inhibitor, partial curve]

Q: Which Potency does the source give for CCCC(C)c1nnc(NC(=O)C2CCCO2)s1 (stereo unspecified) here?
A: inactive

Q: For COc1ccc(NC(=O)NCCN2CCc3ccccc3C2)cc1, which Potency is on record?
A: active: 20 µM

Q: For Fc1ccc(C(c2ccc(F)cc2)N2CCN(C/C=C/c3ccccc3)CC2)cc1, which Potency is on record?
A: inconclusive: 39.8 µM [inhibitor, partial curve]

Q: Which Potency does the source give for COc1ccc(N2CCN(C(=O)COC(=O)Cc3c(F)cccc3Cl)CC2)cc1 here?
A: inconclusive: 56.2 µM [inhibitor, partial curve, poor fit]

Q: Which Potency does the source give for CCC1=C(OC(=O)N(CC)CC)N2C(=O)OC(=NCCc3c[nH]c4ccccc34)[C@]2(C)[C@H]2C1=CC[C@H]1C(=O)NC(=O)[C@H]12 here?
A: inconclusive: 8.91 µM [inhibitor, full curve, poor fit]

Q: Which Potency does the source give for O=C(NNC(=O)c1csc(N2CCOCC2)n1)c1cccnc1 here?
A: inconclusive: 2.51 µM [inhibitor, full curve, poor fit]

Q: How did the Potency turn out when O=C(C1=C[C@H](c2ccccc2)C[C@H](OCc2ccc(CO)cc2)O1)N1CCN(Cc2ccccc2)CC1 was run?
A: inconclusive: 79.4 µM [inhibitor, partial curve]

Q: Which Potency does the source give for Cc1ccc(O)c(Nc2c3ccccc3nc3ccccc23)c1 here?
A: inconclusive: 20 µM [inhibitor, full curve]

Q: For CC(C)(O)C1Cc2cc(/C=C/C(=O)O)c(O)cc2O1 (stereo unspecified), which Potency is on record?
A: active: 3.98 µM

Q: CCOC(=O)C1=C(C)N(CCCCCC(=O)O)C(=O)NC1c1ccc(Br)cc1 (stereo unspecified) was tested. Which Potency did it give?
A: inconclusive: 50.1 µM [inhibitor, partial curve]

Q: For O=C(Nc1cccc(F)c1)C1CCN(S(=O)(=O)c2ccc3[nH]c4c(c3c2)CCCCC4)CC1, which Potency is on record?
A: inconclusive: 28.2 µM [inhibitor, full curve]

Q: With O=C(OCC(=O)c1c[nH]c2ccccc12)c1cccc([N+](=O)[O-])c1 as the compound, how does the Potency read?
A: inconclusive: 56.2 µM [inhibitor, partial curve]

Q: Which Potency does the source give for CN1CCc2c(c3ccccc3n2Cc2ccccc2)C1 here?
A: inconclusive: 56.2 µM [inhibitor, partial curve]

Q: For COc1ccc(C2c3sc(=O)[nH]c3SC3C(=O)N(c4ccccc4)C(=O)C32)cc1 (stereo unspecified), which Potency is on record?
A: inconclusive: 79.4 µM [inhibitor, partial curve]

Q: Which Potency does the source give for O=C(/C=C/c1ccc(Cl)cc1Cl)N(Cc1ccc(Cl)cc1)C1CCS(=O)(=O)C1 (stereo unspecified) here?
A: inactive

Q: Which Potency does the source give for COc1ccc(NC(=O)C2CC(=O)n3cnnc3S2)cc1 (stereo unspecified) here?
A: active: 11.2 µM

Q: How did the Potency turn out when Cc1nn(C)c(Oc2ccccc2)c1CCNS(=O)(=O)c1ccc(Cl)cc1 was run?
A: inconclusive: 31.6 µM [inhibitor, single point]

Q: Which Potency does the source give for Cc1cccc(N2CCN(C(=O)CN3C(=O)C4CC=CCC4C3=O)CC2)c1C (stereo unspecified) here?
A: inactive

Q: Which Potency does the source give for CCOC(=O)C1CCCN(C(=O)Cn2ncc3c4ccccc4n(C)c3c2=O)C1 (stereo unspecified) here?
A: inactive

Q: CN(C)c1cccc(C(=O)OC(C(=O)Nc2ccc([N+](=O)[O-])cc2Br)c2ccccc2)c1 (stereo unspecified) was tested. Which Potency did it give?
A: inconclusive: 2.51 µM [inhibitor, full curve]

Q: Which Potency does the source give for COCCn1c(=S)[nH]c2cc(C(=O)NCCCN3CCOCC3)ccc2c1=O here?
A: active: 25.1 µM
